The structures appear in SMILES notation. The campaign covered roughly 48,000 compounds. About 120 (0.25%) were called active. Another 4% or so got no clear call; they are omitted. Calls come from the whole dose curve; as a rule, active = well fitted activation curve with a large enough effect; inconclusive = small, poorly fitted or top-dose-only effect, or another doubt; inactive = no such curve, though single readings can be large or run the other way. The list shows a part of the results.

A short description of the test: Primary qHTS for Identification of Small Molecule Activators of Huntingtin-Antisense Promoter Activity. Note: nearly all actives have a fitted effect of over 55% in size. As to conditions: HEK293 HTT-AS promoter firefly luciferase reporter, 24 h; series mostly up to 57.5 µM; activity change, positive = activation: at the top concentration. The essentials: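 Luminescence was read after Dual-Glo reagent and a 10 min room-temperature incubation. Values were normalized to vehicle (0% activity) and zero RLU (-100% activity). Reporter HEK293 cells had been exposed to compounds (up to 57.5 uM final) for 24 h.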
A general note: In qHTS, concentration-response curves come from the screen itself.
Take `COc1ccccc1-c1nc(CNC(=O)NC2CCCCC2)c(C)o1`: the “activity change, positive = activation” value was inactive: -7.26%.
Regarding `Cc1ccc(NC(=O)CCn2nc(C)c3c(C)n(-c4ccccc4)nc3c2=O)cc1Cl`, the “activity change, positive = activation” value was inactive: -13.7%.
On to `O=C(Cn1ncc2ccsc2c1=O)N1CCN(c2ccc(Cl)cc2)CC1`, for which the “activity change, positive = activation” value is inactive: -38.1%.
The figure for `CC1CCCCN1Cc1nc2c(c(=O)n(C)c(=O)n2C)n1Cc1ccc(Br)cc1` (stereo unspecified) is inactive: 15.7%; for `COc1ccc(NC(=O)c2c(-c3ccc(C)cc3)nnc3ccccc23)cc1OC` it is inactive: 6%.
The value for `Cc1ccc2c(Sc3ccc(Cl)cc3)c(C(=O)N3CCCCC3)[nH]c2c1` was inactive: -16.8%.
With `CC(C)C[C@H](NC(=O)[C@@H](O)[C@H](N)Cc1ccccc1)C(=O)O`, the “activity change, positive = activation” value is inactive: -16.4%.
The value for `CC(C)c1ccc(NC(=O)c2cn(C3CCCC3)c(=O)c3c2c2ccccc2n3C)cc1` was inactive: -21.6%; that for `COCCn1c(C)cc(O)c(C(c2ccccc2)N2CCN(c3ccccc3F)CC2)c1=O` (stereo unspecified) was inactive: 10.2%.
Regarding `C=CCc1ccc(O)c(-c2ccc(O)c(CC=C)c2)c1`, the “activity change, positive = activation” value is inactive: -14.3%.
The entry for `COc1cc([C@@H]2c3cc4c(cc3[C@H](O)[C@H]3COC(=O)[C@H]23)OCO4)cc(OC)c1OC` is “inactive”; for `NC(CO)(CO)CCc1ccc(Sc2cccc(OCc3ccccc3)c2)cc1Cl` it is inactive: -29.3%; for `O=C(O)CN(CCOCCOCCN(CC(=O)O)CC(=O)O)CC(=O)O` it is inactive: 1.32% [at 0.74 µM, percent change from vehicle, -100% = no light].
The figure for `CC(Nc1ccc(-c2nc(-c3cccnc3)no2)cc1[N+](=O)[O-])c1ccccc1` (stereo unspecified) is inactive: -0.11%; for `CCS(=O)(=O)c1ccc(C(=O)N2CCN(c3nc4c(OC)ccc(C)c4s3)CC2)cc1` it is inactive: -36.5%.
The value for `CCN(CC)CCCC(C)Nc1c2ccc(Cl)cc2nc2ccc(OC)cc12` (stereo unspecified) was inactive: -1.79%; that for `CCOC(=O)c1ccc(NC(=O)CCCc2nc(-c3ccccc3Cl)no2)cc1` was inactive: -18.3%; that for `CCOc1ccc(S(=O)(=O)NCC(c2ccco2)S(=O)(=O)c2cccs2)cc1` (stereo unspecified) was inactive: -10.3%.
As to `Cc1ccc(NC(=O)c2cnn3c(C(F)F)cc(-c4ccccc4)nc23)c(C)c1`, the “activity change, positive = activation” value is inactive: -9.86%.
`COc1ccc(OC)c(NC(=O)C2CCCN(S(=O)(=O)c3c(C)nn(C)c3C)C2)c1` (stereo unspecified): the “activity change, positive = activation” value was inactive: -7.9%.
Regarding `Cc1ccc(NC(=O)Nc2nnc(N(CC(C)C)CC(C)C)s2)cc1Cl`, the “activity change, positive = activation” value was inactive: -7.59%.
The value for `CCc1ccc(CNC(=O)Cc2ccc(NC(=O)N3CCSc4ncccc43)cc2)cc1` was inactive: -21.7%; that for `COc1cccc(N2CCN(C(=O)C(CCSC)NS(=O)(=O)c3ccc4c(c3)oc(=O)n4C)CC2)c1` (stereo unspecified) was inactive: -12%.
Take `CCOC(=O)CSc1nc2ccc(NC(=O)c3ccc(C)cc3)cc2s1`: the “activity change, positive = activation” value is inactive: 8.47%.
The value for `O=C(O)c1ccc2c(c1)ncn2-c1ccc(F)c(F)c1` was inactive: -9.78%; that for `Cc1ccc(CNC(=O)Cn2nc(C)n3cccc3c2=O)cc1` was inactive: -0.551%.
